Assay results from PubChem BioAssay AID485294 (National Center for Advancing Translational Sciences (NCATS), 2010).
About 150 (0.041%) of roughly 370,000 compounds were called active. The inconclusive results got no clear call from the source; some entries with a clear call stand among them for comparison. The call rests on the fitted dose curve; in most records, active means well fitted inhibition curve with a large enough effect; inconclusive means small, poorly fitted or top-dose-only effect; inactive means flat fitted curve, though single readings scatter. Potencies of inconclusive entries are left out as doubtful fits.

Each compound was assayed against Beta-lactamase (Escherichia coli (strain K12)) (UniProt P00811) (assay: qHTS Inhibitors of AmpC Beta-Lactamase (assay with detergent)). Conditions: AmpC hydrolysis of nitrocefin, absorbance 480 nm, 0.01% Triton; series mostly up to 114 µM.
Chain of UniProt P00811 (P00811 whole entry, looked up): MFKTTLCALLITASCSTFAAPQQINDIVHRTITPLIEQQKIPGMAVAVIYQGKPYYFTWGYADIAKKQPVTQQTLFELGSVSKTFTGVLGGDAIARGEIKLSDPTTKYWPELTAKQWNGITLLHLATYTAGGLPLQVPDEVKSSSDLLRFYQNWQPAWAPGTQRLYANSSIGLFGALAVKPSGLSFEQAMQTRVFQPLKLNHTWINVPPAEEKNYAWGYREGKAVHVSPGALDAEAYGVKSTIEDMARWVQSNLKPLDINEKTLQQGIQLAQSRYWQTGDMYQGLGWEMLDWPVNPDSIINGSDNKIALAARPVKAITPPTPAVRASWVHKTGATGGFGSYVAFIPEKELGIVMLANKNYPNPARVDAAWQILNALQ
In short: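 AmpC (5.3 nM in the dispensed reagent) in 20 mM phosphate pH 7.0 with 0.01% (detergent screen) or 0.0001% Triton X-100 was preincubated with compounds for 15 min at room temperature. Nitrocefin was then added from an 800 uM solution, and hydrolysis was followed at 480 nm.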
Further: nearly all actives have a fitted effect of over 25% in size.
Potency means the concentration at half of the fitted maximal effect; tags describe the fitted curve by direction and shape.

Row | Structure (SMILES) | Potency
1 | CSc1nnc(-c2cnccn2)n1C | inconclusive [inhibitor, partial curve, poor fit]
2 | O=C(CN1CCN(c2nc(-c3ccc(F)cc3)cs2)CC1)Nc1ccc2c(c1)OCO2 | inconclusive [inhibitor, full curve]
3 | Cc1cc(C)nc(N2N=C(C(F)(F)F)CC2=O)n1 | inactive
4 | Cc1ccc2cc3c(N)nn(C(=O)c4cccc(F)c4)c3nc2c1 | inactive
5 | COc1ccc([N+](=O)[O-])cc1NC(=O)C1CCCN1S(=O)(=O)c1cccs1 (stereo not given) | inconclusive [inhibitor, partial curve]
6 | CCCCCCn1c(=O)c(C(=O)Nc2ncccc2C)c(O)c2ccccc21 | inconclusive [inhibitor, full curve, poor fit]
7 | CCCCCCCN1CCC(=O)N([C@H](CO)c2ccccc2)CC1 | inactive
8 | CCN1CCN(S(=O)(=O)c2cc(OCC(=O)NC3CCCCC3)c(C)cc2Cl)CC1 | inconclusive [inhibitor, single point]
9 | COc1cc(OC)cc(-c2nnc(SCC(=O)N(Cc3ccccc3)C(C)(C)C)o2)c1 | inconclusive [inhibitor, full curve, poor fit]
10 | C=CCn1c(-c2c[nH]c3ccccc23)n[nH]c1=S | inactive
11 | S=c1[nH]ncc2ccccc12 | inconclusive [inhibitor, full curve, poor fit]
12 | CCOC(=O)N1CCC(c2cc(=O)n3[nH]ccc3n2)CC1 | inconclusive [inhibitor, full curve, poor fit]
13 | O=C(Nc1nnc(Cc2ccc(Cl)cc2)s1)c1ccco1 | inconclusive [inhibitor, full curve, poor fit]
14 | CC(C)(C)C(=O)NC(=S)NCCc1ccccc1 | inactive
15 | CCCCN1C(=O)C(NC(=O)CC(C)C)(C(F)(F)F)C2=C1CC(C)(C)CC2=O (stereo not given) | inconclusive [inhibitor, full curve, poor fit]
16 | Cc1ccccc1-n1c(SCC(=O)N/N=C/C=C/c2ccccc2[N+](=O)[O-])nc2ccccc2c1=O | inactive
17 | CN(C)S(=O)(=O)Oc1ccc(C(=O)Nc2ccc([N+](=O)[O-])cc2)cc1 | inconclusive [inhibitor, full curve, poor fit]
18 | O=c1c2ccccc2oc2nc(-c3ccco3)n(Cc3ccccc3)c(=O)c12 | inconclusive [inhibitor, single point]
19 | Cn1cccc1Cc1nnc(SCC(=O)N2CCCc3ccccc32)n1-c1ccc(F)cc1 | inconclusive [inhibitor, full curve, poor fit]
20 | O=C(Nc1ccccn1)C1CCN(S(=O)(=O)c2ccc3c(c2)OCCCO3)CC1 | inconclusive [inhibitor, partial curve, poor fit]
21 | Cc1ccc(Oc2ccccc2NC(=O)CN2C(=O)NC3(CCCC3)C2=O)cc1 | inactive
22 | Cc1ccc(C2CC(c3cccc(Cl)c3)n3nc(N)nc3N2)cc1 (stereo not given) | inconclusive [inhibitor, partial curve, poor fit]
23 | O=C(CSc1nc(-c2ccncc2)nn1CC(=O)N1CCCCC1)NC1CCCC1 | inactive

Row | Structure (SMILES) | Potency
24 | CCOC(=O)c1ccc2[nH]c(C)cc(=O)c2c1 | inconclusive [inhibitor, full curve, poor fit]
25 | CCN(CC)S(=O)(=O)c1cc(C(=O)Nc2cc(C)[nH]n2)ccc1Cl | inactive
26 | CCN(c1ccc(NC(=O)COC(=O)C(C)N=C2NS(=O)(=O)c3ccccc32)cc1)C(C)C (stereo not given) | inconclusive [inhibitor, partial curve, poor fit]
27 | CC(=O)c1cccc(NS(=O)(=O)c2c(C)noc2C)c1 | inconclusive [inhibitor, full curve, poor fit]
28 | CC(C)C(=O)N=C1NC(=O)CS1 | inconclusive [inhibitor, partial curve, poor fit]
29 | Cc1cc(NC(=O)c2cc3cccc([N+](=O)[O-])c3[nH]2)ccc1F | inactive
30 | CCOc1ccc(N=Cc2c(O)c3ccccc3oc2=O)cc1 | inactive
31 | COCCNC(=S)NNC(=O)c1ccco1 | inconclusive [inhibitor, full curve]
32 | CSCCC(NS(=O)(=O)c1ccc2c(c1)oc(=O)n2C)C(=O)N1CCN(c2cccc(Cl)c2)CC1 (stereo not given) | inactive
33 | CC1CCCCC12NC(=O)N(CC(=O)N1CCN(S(=O)(=O)/C=C/c3ccccc3)CC1)C2=O (stereo not given) | inactive
34 | COC(=O)c1cc(=O)n(Cc2ccc3c(c2)OCO3)c(=Nc2ccc(F)cc2)s1 | inconclusive [inhibitor, full curve, poor fit]
35 | FC(F)(F)c1cccc(NC(=S)NC(c2ccccc2)c2ccccc2)c1 | inactive
36 | Cn1c(=O)[nH]c(=O)c2c1nc(N1CCN(Cc3ccccc3)CC1)n2CCSc1ncccn1 | inconclusive [inhibitor, full curve, poor fit]
37 | CCC(C)c1ccc(NC(=O)NCc2cccnc2)cc1 (stereo not given) | inactive
38 | CN(C(=O)c1cc2c(s1)-c1ccc(Cl)cc1SC2)c1cccc(C(F)(F)F)c1 | inactive
39 | CC(C)c1nc(SCC(=O)N2CCCC2)c2ccccc2n1 | inactive
40 | CC(=O)C1=C(O)C(=O)N(Cc2ccccc2)C1c1ccc(N(C)C)cc1 (stereo not given) | inconclusive [inhibitor, full curve, poor fit]
41 | CC(=O)N1CCc2cc(Br)cc(S(=O)(=O)CCC(=O)NCCc3ccc(Cl)cc3)c21 | inconclusive [inhibitor, partial curve, poor fit]
42 | C[C@H](NC(=O)OCc1ccccc1)C(=O)NNC(=O)[C@H](C)NC(=O)OCc1ccccc1 | inactive
43 | CCN(CC)CCCn1c2c(c(SCC(=O)Nc3nccs3)nc1=O)CCC2 | inconclusive [inhibitor, full curve]
44 | FC(F)(F)c1cc(-c2cccs2)nc(-n2cc(Br)cn2)n1 | inactive
45 | COc1ccc(/C=N/NC(=O)c2cc(-c3ccccc3)nc3ccccc23)cc1O | inactive
